The values below come from the RNAGym collection of RNA variant scans (doi:10.1073/pnas.2313332121).

To fix the notation:
B1: TPR 5TU (parent)
chain: GGAUCUUCUCGAUCUAACAAAAAAGACAAAUCUGCCACAAAGCUUGAGAGCAUCUUCGGAUGCAGAGGCGGCAGCCUUCGGUGGCGCGAUAGCGCCAACGUUCUCAACUAUGACACGCAAAACGCGUGCUCCGUUGAAUGGAGUUUAUCAUG

This sample is rich in variants without activity.

This series covers variants of B1. As to the kind of experiment: polymerase ribozyme fitness, log enrichment relative to wild type (log ratio); higher = more active; in vitro selection for triplet polymerase activity. In short, it runs like this:
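One round of in vitro selection, in triplicate, was applied to PCR-built, transcribed mutant libraries of each subunit of a heterodimeric triplet polymerase ribozyme. The steps were annealing with a biotinylated primer, partner subunit and triplets, incubation frozen at −7 °C, gel excision of extended constructs, streptavidin-bead capture and RT-PCR. Fitness is the logarithm, base 2, of genotype enrichment over wild-type enrichment from inverse-variance-weighted replicate averages of Illumina-sequenced inputs and outputs, keeping genotypes with ≥10 input reads and ≥1 read per output.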
With A12U A47G G50A G86A C93U G136A A150G, the “polymerase ribozyme fitness (log ratio)” value is not above -4.2. As to U13C C87A, the “polymerase ribozyme fitness (log ratio)” value was not above -4.2. Then A12C C27G A37G A40U U55G U148C, with not above -4.2. Then G11U C85G U104G G141U, with not above -4.2. Then A12G U45G C69G A91C A115G G133A G143U, with not above -4.2. As for A12G C76G U134A U146G, the “polymerase ribozyme fitness (log ratio)” value was not above -4.2. Then G11U C18G G58C A60C U78C G83A C96U A115C, with not above -4.2; and A12U C96U U144G, with 0.0703. Then A12U G42C C51U C93U C123A G124U, with not above -4.2; and A12U A17C G68A C76G U82G U146C, with not above -4.2.

A12U A22G A29C G42U C87U C93A: the “polymerase ribozyme fitness (log ratio)” value is not above -4.2. The value for A12U A20C A29C U78G A91U was not above -4.2. Then A12G A49G U56A U61A G88A, with not above -4.2.

For the variant G11U U56A A64G C118U A121U, the “polymerase ribozyme fitness (log ratio)” value was not above -4.2. The value for U13A C32A U44C C75U C76U was not above -4.2; that for A12C A16G U55A was -2.45; that for A12U G59C G92A A107C G124C A142U C149A was not above -4.2. On to A12U C38U U77A G88A U90A G92A A98G, for which the “polymerase ribozyme fitness (log ratio)” value is not above -4.2. Take A12G U31G C118A A120G G141C: the “polymerase ribozyme fitness (log ratio)” value was -2.6. On to A12U A52C G62A U78G C93U, for which the “polymerase ribozyme fitness (log ratio)” value was not above -4.2.

As for U13C A19C A22C A49U U53G C57A U111C G136U G141C, the “polymerase ribozyme fitness (log ratio)” value was not above -4.2.

Take A12U A49C G100U U146G: the “polymerase ribozyme fitness (log ratio)” value is not above -4.2. The value for A12U U56A C93U A147G was -1.6; that for A12G A26G G94C C95A A137G was -4; that for U13C C72A C85A was not above -4.2. The value for U13C C18U U44A C96U C105G C116U C118G G143C was not above -4.2; that for U13C A16G U44A C85G was not above -4.2; that for A12U A41C G59C G71U C87U U148A was not above -4.2. As for A12C A29C A52G U56A C93A G141A, the “polymerase ribozyme fitness (log ratio)” value is not above -4.2. The value for A12U C35A U78G G92A was not above -4.2; that for U13C A26G A52G C54U U82A C95U A107G was not above -4.2.

As to A12G A24U A49U C51A A66G C95U C105A, the “polymerase ribozyme fitness (log ratio)” value was not above -4.2. The value for A12G A28C C63U G68A C85A C105A C114U C123G was not above -4.2; that for U13A A23U C38U A40C A60U G68C U102A was not above -4.2; that for A12C G62A C105A was not above -4.2. The value for U13A G42C C54U G94A G143C was not above -4.2.

Take A12G G68U G80U G100A U135G U139A U144A: the “polymerase ribozyme fitness (log ratio)” value is not above -4.2. Then A12G A41G C85G A106G, with -1.5; and A12U C85G C123U U127A, with not above -4.2. The value for A12C A41C G50A G86U A137C C149A was not above -4.2. The value for A12C C87G A137U A138C was not above -4.2. For the variant A12C A52U U53A C57G U61G G68C A119U G124C G141C, the “polymerase ribozyme fitness (log ratio)” value was not above -4.2. For A12G C54A G86C C87U G126A, the “polymerase ribozyme fitness (log ratio)” value is not above -4.2. The value for A12C C14A A24G A49G U82A C95G was not above -4.2; that for U13G A19G G42A U56A C85A G143A G152A was not above -4.2.

Turning to A12C C63A U139C A150G, the “polymerase ribozyme fitness (log ratio)” value was not above -4.2.

For A12C G34A G67A G84A G152U, the “polymerase ribozyme fitness (log ratio)” value is not above -4.2. Then A12G G42A U77A, with not above -4.2. Then A12U G25C A47G U56A C93G C108G, with not above -4.2. Then A12C A19C C75U A89U C93A U102A, with not above -4.2. For A12G A41C A47C C72A C85U G133A A150U, the “polymerase ribozyme fitness (log ratio)” value is not above -4.2. The value for A12G A37G C87U U109G U144C U145C C149G was not above -4.2; that for A12C U55G A97G C105U was -3.12. A12G C51U G74C A115G C123A G143U: the “polymerase ribozyme fitness (log ratio)” value was not above -4.2. As for A12G C85A C118A G136U, the “polymerase ribozyme fitness (log ratio)” value was -3.83. Then G11U C51U A113U C132A U139G U146A, with not above -4.2. Consider A12U G81C G84A A115U, for which the “polymerase ribozyme fitness (log ratio)” value is not above -4.2. Then U13A G46U G59A A91G C95U G117A, with not above -4.2. Then A12G A22C U53A G88C C108A A110U, with not above -4.2; and A12G U31A A60C G68U, with not above -4.2.

Take U13C G58A G88U U90A U102G: the “polymerase ribozyme fitness (log ratio)” value is not above -4.2. Then A12U C35G A60C U61A C76A G124U, with not above -4.2. Then A12U A21G C35U G86A C105G A107U C149A A150G, with not above -4.2. On to A12G U45A A52U C93A C118A A120U U145G, for which the “polymerase ribozyme fitness (log ratio)” value is not above -4.2.

With A12C C72G G88C C99A G124C U144A, the “polymerase ribozyme fitness (log ratio)” value was not above -4.2. The value for A12U C14G A91G C93U was not above -4.2; that for A12G C38U C76A G84A G94A U135G G141A U144C was not above -4.2. For the variant A12G A91G A106G, the “polymerase ribozyme fitness (log ratio)” value was -2.04. As to A12U A39C A52G C57G, the “polymerase ribozyme fitness (log ratio)” value was -4.2. Turning to U13A C32U G67C C85A C105U G140A, the “polymerase ribozyme fitness (log ratio)” value is not above -4.2. The value for A12C A52C U56A U78A U109G A150G was not above -4.2; that for U13A A60G C85G C118G A121U U139A was not above -4.2; that for U13C G48U G83A G92A was not above -4.2. Then U13A A73G G84A, with -0.387; and A12G U53A U56G C93U U102G, with not above -4.2; and U13C A19C C36G C63A C95A C96U, with not above -4.2. The value for A12U A29U A37U C93G G112C G136C was not above -4.2; that for A12G A29G C54A G70U G71A C85A A113C was not above -4.2; that for A12C A28C A73G G86U A107G C149A was not above -4.2.

For the variant G11U U31C U44G G48C G83U G86U A91U A115C C125U, the “polymerase ribozyme fitness (log ratio)” value is not above -4.2. Then A12C U53C C79A C105A C116U C125U A137U, with not above -4.2; and A12G C35G A47C A89U C123A U130G G143A, with not above -4.2; and U13A A23G C32A G58A C69G C85U, with not above -4.2.

Turning to A12G U31C G133U G143A, the “polymerase ribozyme fitness (log ratio)” value was not above -4.2.
